Reference: PubChem BioAssay AID1645887 (National Center for Advancing Translational Sciences (NCATS), 2021)
Several values for one entry are separate records, joined by “and”; a condition that tells them apart may be missing. Equal entries are not always repeated. Screen size: about 16,000 compounds; about 40 (0.2%) were called active. Another 1% or so got no clear call; they are omitted. Calls follow the shape of the dose curve; as a rule, active = well fitted activation curve with a large enough effect; inconclusive = small, poorly fitted or top-dose-only effect, or another doubt; inactive = no such curve, though single readings can be large or run the other way. The list shows a part of the results. Residues, ends and D or L forms follow the SMILES beside them. *: point of attachment. Cbz = O=C(OCc1ccccc1)*

Each compound was assayed against Rap guanine nucleotide exchange factor 4 (Homo sapiens) (UniProt Q8WZA2) (assay: Validation qHTS for agonist of cAMP-regulated guanine nucleotide exchange factor 4 (EPAC2)). Conditions: EPAC2 Rap1B BODIPY-GDP exchange, fluorescence; activation: active compounds read high.
Outline: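 Signal normalized against 6.5 mM cAMP as agonist control. Mix of EPAC2 (100 nM), RAP1B-BODIPY-GDP (250 nM) and GDP (50 uM) was read kinetically at 480/540 nm, every 5 min over 30 min, after 5 min room-temperature incubation with compound.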
% is scaled to controls: 0 for no effect and ±100 for the full control effect.
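Also: exchange makes BODIPY-GDP fluorescence drop when released from Rap1B; series mostly up to about 150 µM.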

Chain of UniProt Q8WZA2 (Q8WZA2 whole entry, looked up): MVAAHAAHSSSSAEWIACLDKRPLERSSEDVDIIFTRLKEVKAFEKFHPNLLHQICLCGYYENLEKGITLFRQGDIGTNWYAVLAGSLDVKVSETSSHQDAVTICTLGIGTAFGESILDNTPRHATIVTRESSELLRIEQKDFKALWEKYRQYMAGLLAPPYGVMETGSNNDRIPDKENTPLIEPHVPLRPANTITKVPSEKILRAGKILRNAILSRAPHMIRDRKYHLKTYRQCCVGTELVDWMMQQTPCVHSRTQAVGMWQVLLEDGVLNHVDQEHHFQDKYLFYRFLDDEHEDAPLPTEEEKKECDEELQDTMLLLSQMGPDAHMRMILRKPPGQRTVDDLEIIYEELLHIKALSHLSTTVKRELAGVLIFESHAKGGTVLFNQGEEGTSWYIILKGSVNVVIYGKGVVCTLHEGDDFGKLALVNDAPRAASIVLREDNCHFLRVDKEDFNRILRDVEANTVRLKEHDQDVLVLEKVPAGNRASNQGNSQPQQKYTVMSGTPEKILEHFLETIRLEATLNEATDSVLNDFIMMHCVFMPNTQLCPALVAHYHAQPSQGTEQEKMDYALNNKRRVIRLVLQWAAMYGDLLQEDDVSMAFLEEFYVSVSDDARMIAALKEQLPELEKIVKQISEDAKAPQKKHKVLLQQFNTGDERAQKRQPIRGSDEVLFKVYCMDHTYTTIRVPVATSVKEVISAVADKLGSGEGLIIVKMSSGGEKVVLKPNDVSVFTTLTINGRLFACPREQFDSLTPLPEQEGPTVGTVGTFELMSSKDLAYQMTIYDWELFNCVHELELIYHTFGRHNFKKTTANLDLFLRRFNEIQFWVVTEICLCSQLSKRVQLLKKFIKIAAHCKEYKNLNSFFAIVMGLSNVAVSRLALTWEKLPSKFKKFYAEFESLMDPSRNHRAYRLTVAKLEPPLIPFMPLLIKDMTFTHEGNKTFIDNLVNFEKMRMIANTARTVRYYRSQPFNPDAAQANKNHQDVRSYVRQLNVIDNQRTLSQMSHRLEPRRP

activation, inactive:
CCc1nc2cc(C(=O)N(C)CC3CCCN(C)C3)cc(NC(=O)c3ccccc3OC)c2n1C (centres undefined) -11.4%
FC(F)(F)c1cc(CN2CC[C@@]3(CCCNC3)C2)cc(C(F)(F)F)c1 -17.8%
O=C(O)Cc1cccc2ccccc12 -3.95% and -8.91%
COCC(=O)N1CCC2(CCCN(Cc3cc(C(F)(F)F)cc(C(F)(F)F)c3)C2)CC1 -35.3%
CC(C)[C@H](NC(=O)OCc1ccccc1)C(=O)N[C@H](C=O)Cc1ccccc1 (Cbz-Val-Phe-aldehyde) -0.583% and -58.1%
O=C(c1cnccn1)N1CCC2(CCN(Cc3nccs3)CC2)CC1 -7.81%
OC[C@H]1NC[C@@H](O)[C@@H]1O -33.5%
NC(=S)c1ccc[n+]([C@@H]2O[C@@H](COP(=O)([O-])OP(=O)(O)OC[C@H]3O[C@@H](n4cnc5c(N)ncnc54)[C@H](OP(=O)(O)O)[C@@H]3O)C(O)C2O)c1 (some centres undefined) -34.4%
O=C(O)C[C@H]1c2ccccc2S(=O)(=O)N1c1ccccc1 -13.5%
CCCNC(C)(C)COC(=O)c1ccccc1 -6.9%
O=c1c(-c2ccc(F)cc2)nc2cnc(N3CCOCC3)nc2n1C1CC1 -4.69%
COCCn1c(=O)c(-c2ccc(F)cc2)nc2cnc(Oc3ccc(OC)cc3)nc21 0.482%
Cc1cccc(/C=C\c2ccccc2)n1 -11.9%
CCC1(C)CC(=O)NC1=O (centres undefined) -13.2% and 8.15% and -4.64%
CC(=O)Nc1ccc(OC(C)=O)cc1 -10.8%
CCOC(=O)/C=C1\CN(Cc2cc(OC)c(OC)c(OC)c2)S(=O)(=O)c2ccccc21 -10.4%
Cc1nc2c([nH]1)c(=O)n(C)c(=O)n2Cc1ccco1 -19.9% and -14%
O=C1C=CC2=C3c4cc(O)c(O)cc4CC3(O)COC2=C1O (centres undefined) -1.99% and -8.15%
CC(NCCc1ccc(O)cc1)C(O)c1ccc(O)cc1 (centres undefined) -5.47%
COc1ccc(NC(=O)N2CC[C@@]3(CCCN(C(=O)c4cnccn4)C3)C2)cc1 -8.57%
FC(F)(F)c1ccccc1-c1cncnc1NCc1cccnc1 5.46%
CC(C)C(=O)NC(C)c1nnc2n1CCN(Cc1cccc3ncccc13)CC2 (centres undefined) -6.55%
Cc1cnc(CNc2ncncc2-c2cccnc2)cn1 -4.06%
Cc1c(C(=O)NCCN2CCC(c3ccccc3)CC2)cnn1-c1nccc(-c2cccs2)n1 7.77%
CCNc1ncc2nc(-c3ccc(OC)cc3)c(=O)n(CCC#N)c2n1 7%
COc1ccc2[nH]cc(CCNc3ccnc(-c4ccccc4C(F)(F)F)n3)c2c1 6.13%
O=C(c1ccncc1)N1CCC2(CC1)CCN(c1cccc(-c3ccccc3)c1)CC2 -10%
O=C(Nc1cccc(F)c1)N1CCC2(CC1)CCN(C(=O)c1cc(C(F)(F)F)cc(C(F)(F)F)c1)CC2 -19.8%
CCc1nn(CCCN2CCN(c3cccc(Cl)c3)CC2)c(=O)n1CCOc1ccccc1 -34.6% and -34.2%
Cn1cc(-c2nc3cnc(Oc4ccccc4)nc3n(CCC#N)c2=O)c2ccccc21 -12%
Cc1ccccc1-c1cncnc1Nc1ccccc1 -0.0422%
CCNc1ncc2nc(-c3ccccc3)c(=O)n(Cc3ccc(F)cc3)c2n1 -6.84%
CN(C)CCCc1cc(C(=O)Nc2ccc(-c3ccncc3)cc2)ccc1O -6.52% and -24%
NC1[C@H]2CN(c3nc4c(cc3F)c(=O)c(C(=O)O)cn4-c3ccc(F)cc3F)C[C@@H]12 (some centres undefined) 5.15%
CC(=O)OCC(=O)Nc1cc(C#N)cc(NC(=O)COC(C)=O)c1Cl -7.55%
Cc1noc(C)c1C(=O)N1CCC2(CCCN(c3ncccn3)C2)CC1 -9.41%
Cn1c(=O)c2c(nc(/C=C/c3cccc(Cl)c3)n2C)n(C)c1=O -14.6% and -40.8%
O=C(c1cccc(Cn2cccn2)c1)N1CCOc2c(cc(-c3csc4ccccc34)cc2OC2CCOC2)C1 (centres undefined) -3.16%
O=C(c1ccco1)N1CCC2(CCCN(c3ccccc3)C2)CC1 -14.4%
CCC[C@H]1COCCS(=O)(=O)N1Cc1ccc(F)cc1 -24.9%
Cc1c(C(=O)N(C)C2CCOC2)sc2ncnc(NCc3ccc4c(c3)OCO4)c12 (centres undefined) -6.46%
O=S(=O)(c1cccc2cnccc12)N1CCCNCC1 -7.66% and -21.6%
COc1cc2nc(N3CCCN(C)CC3)nc(NC3CCN(Cc4ccccc4)CC3)c2cc1OC -7.85%
O=c1[nH]/c(=C/c2ccc3c(c2)OCO3)c(=O)[nH]/c1=C/c1ccc2c(c1)OCO2 -18.9%
COc1ccc(CN2CCCC(c3nc(-c4ccncc4)ncc3-c3ccccc3)C2)cc1OC (centres undefined) 4.37%
CCC(C)(C)C(=O)O[C@H]1C[C@@H](C)C=C2C=C[C@H](C)[C@H](CC[C@@H]3C[C@@H](O)CC(=O)O3)[C@H]21 -8.54%
CC(C)[C@H]1COCCS(=O)(=O)N1Cc1ccccc1 -40.8%
CN(C)c1ccc(-c2cc(N(C)Cc3ccco3)ncn2)cc1 -3.89%
COc1ccc(C2Sc3ccccc3N(CCN(C)C)C(=O)C2OC(C)=O)cc1 (centres undefined) -4.06%
CCC(c1ccccc1)c1noc(CCN(CC)CC)n1 (centres undefined) 20.5%
CC(C)(C)CC(C)(C)N=C1Nc2ccc(Cl)cc2NC12C[C@H]1CCC(=O)N3CC[C@@H](C2)[C@@H]13 (some centres undefined) -17.4%
CCCCS(=N)(=O)CCC(N)C(=O)O (centres undefined) -14.4% and -36%
CC(=O)O[C@H]1CC2(C)[C@@H](C[C@@H](O)[C@H]3[C@@]4(C)CC[C@@H](O)[C@@H](C)[C@@H]4CC[C@@]32C)C1=C(CCC=C(C)C)C(=O)O (some centres undefined) -35.7%
COC(=O)C1CCCCN1Cc1ccc2c(c1)CN(C1CCSCC1)CCO2 (centres undefined) 1.8%
COc1cccc(OC)c1OCCNCC1CSc2ccccc2O1 (centres undefined) -20.1%
C[C@@H]1CN(c2c(F)c(F)c3c(=O)c(C(=O)O)cn(C4CC4)c3c2F)C[C@H](C)N1 8.93%
Cc1cc(=O)[nH]c2cc(N)ccc12 -12.6%
Cc1cnc(C(=O)NCc2c(C)ncc3c2CCN(C(=O)/C=C/c2cccs2)C3)cn1 3.19%
O=c1c(-c2cccs2)nc2cncnc2n1C1CC1 -16.6%
O=C(NCC1CCC2(CCN(Cc3cnn(-c4ccc(F)cc4)c3)CC2)O1)c1ccccc1 (centres undefined) 6.38%
O=C(Nc1ccccc1)C12CC1/C(=N\O)c1ccccc1O2 (centres undefined) -4.1%
CC(=O)Oc1ccc(C(c2ccc(OC(C)=O)cc2)c2ccccn2)cc1 -9.04% and -36.9%
CN(C)C(=O)COC(=O)Cc1ccc(OC(=O)c2ccc(N=C(N)N)cc2)cc1 3.81%
Cc1ncc2c(c1CNC(=O)/C=C/c1cccs1)CCN(C(=O)c1noc3c1CCCC3)C2 -5.35%
O=c1c(CCc2ccccc2)nc2cnc(Oc3ccccc3)nc2n1C1CC1 1.28%
O=[N+]([O-])c1ccc(O)c2ncccc12 11.4%
COc1cccc(CNC(=O)c2c(OC)cc(=O)n3c2CCN(C(=O)C2CC24CCCCC4)CC3)c1 (centres undefined) -1.78%
COc1cc(CNC(=O)CCCCCCC(C)C)ccc1O -3.86% and -86.5%
O=C(O)/C=C/c1ccc2c(c1)S(=O)(=O)N(C1CCCC1)[C@H]2CC(=O)O -14.8%
c1ccc(CN2CCN(Cc3ccc4c(c3)CN(Cc3c[nH]c5ccccc35)CCO4)CC2)nc1 -13.8%
Cc1ccc(CC(Cc2nc3ccccc3[nH]2)c2nc3ccccc3[nH]2)cc1 (centres undefined) -9.83%
O=C(NCCc1ccccc1)[C@@H]1CC=C[C@@H]2CCN(Cc3ccc(Cl)c(Cl)c3)C(=O)[C@@H]21 -20%
Cc1ncc2c(c1CNC(=O)/C=C/c1cccs1)CCN(C(=O)C1CCCO1)C2 (centres undefined) 2.68%
C1CCC(NC(=NC2C3CC4CC(C3)CC2C4)N2CCOCC2)CC1 (centres undefined) 5.03% and -1.04%
O=C(O)COc1ccccc1/C=N/NC(=O)c1ccncc1 -1.83%
NC(=O)c1ncn(C2OC(CO)C(O)C2O)c1N (centres undefined) -16.6%
Cc1oc(-c2ccccc2NC(=O)C2CCCO2)nc1CNC(=O)c1[nH]c2c(C)ccc(C)c2c1C (centres undefined) 8.6%
CC(/C=C/C=C(\C)C(=O)O[C@@H]1O[C@H](CO[C@@H]2O[C@H](CO)[C@@H](O)[C@H](O)[C@H]2O)[C@@H](O)[C@H](O)[C@H]1O)=C\C=C\C=C(C)\C=C\C=C(/C)C(=O)O[C@@H]1O[C@H](CO[C@@H]2O[C@H](CO)[C@@H](O)[C@H](O)[C@H]2O)[C@@H](O)[C@H](O)[C@H]1O -26.4%
CCCc1nn(C)c2c(=O)[nH]c(-c3cc(S(=O)(=O)N4CCN(C)CC4)ccc3OCC)nc12 -4.32% and -13.8%
